Test results from PubChem BioAssay AID686978 (National Center for Advancing Translational Sciences (NCATS), 2013).
The campaign covered roughly 420,000 compounds. About 64,000 (15%) were called active. This list was built around the results that the source calls inconclusive (neither active nor inactive); the mix of calls is not that of the screen. Calls come from the whole dose curve; as a rule, active = well fitted inhibition curve with a large enough effect; inconclusive = small, poorly fitted or top-dose-only effect; inactive = flat fitted curve, though single readings scatter. No potency is given beside an inconclusive call; the fits are too rough.

experiment: qHTS for Inhibitors of human tyrosyl-DNA phosphodiesterase 1 (TDP1): qHTS in cells in absence of CPT; settings: DT40 Tdp1-/- hTDP1 cells, no CPT, ATP luminescence, 48 h; activity change, negative = growth inhibition: at 46.2 µM (top of the series) unless noted; note: nearly all actives have a fitted effect of over 55% in size
How it was run: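 No-CPT arm: Tdp1-/-;hTDP1 DT40 cells (400/well) plus compounds, incubated ≥48 hr at 37 °C. Readout CellTiter-Glo luminescence.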
% is set by controls: 0 for no effect and ±100 for the full control effect; potency is the fitted concentration of half-maximal effect; tags give direction and shape of the fitted curve.

| SMILES | Potency | activity change, negative = growth inhibition |
| --- | --- | --- |
| CCCSc1nc(NCc2ccco2)c2c3c(sc2n1)COC(C)(C)C3 | inconclusive [inhibitor, single point] |  |
| O=S(=O)(Nc1ccc2cn[nH]c2c1)c1cc(Br)ccc1Br | inconclusive [inhibitor, single point] |  |
| Cc1c(C)n(CCCN(C)C)c2ncnc(Nc3ccc(F)cc3)c12 |  | inactive: -2.63% |
| O=C(CCN1C(=O)/C(=C/c2ccccc2Cl)SC1=S)NC1C=CS(=O)(=O)C1 (stereo not given) | active: 23.1 µM |  |
| CN(c1ccccc1C(=O)N1CCN(c2ccccc2F)CC1)S(=O)(=O)c1ccccc1 | inconclusive [inhibitor, single point] |  |
| CCCCCC(=O)Nc1ccc(C(=O)COC(=O)c2ccccn2)cc1 |  | inactive: -2.49% |
| CCn1c(N2CCN(C(c3ccccc3)c3ccccc3)CC2)nc2c1c(=O)[nH]c(=O)n2C |  | inactive: 0.897% |
| CCN(C(=O)COC(=O)c1ccc(O)cc1)c1cccc2ccccc12 | inconclusive [inhibitor, single point] |  |
| CCOc1ccc(NC(=O)CCc2nc3cccnc3n2-c2ccccc2)cc1 | inconclusive [inhibitor, partial curve] |  |
| O=C1NC2(CCc3ccccc3C2)C(=O)N1CCOc1cccc(Cl)c1 (stereo not given) |  | inactive: -19.7% |
| COc1ccc(OC)c(NC(=O)CC2C(=O)NCCN2C(=O)C(F)(F)F)c1 (stereo not given) |  | inactive: -6.38% |
| COc1ccc(C(=O)NC(=S)N2CCC(C)CC2)cc1Br | inconclusive [inhibitor, single point] |  |
| COc1ccc(S(=O)(=O)N2CN(Cc3ccco3)c3nc4ccccc4nc32)cc1 | inconclusive [inhibitor, single point] |  |
| Cc1noc(C)c1-c1nc(CS(=O)(=O)c2ccccc2)no1 |  | inactive: -7.11% |
| Cc1cccn2c(=O)c(/C=C(\C#N)C(=O)NCc3ccccc3)c(N3CCC(C(N)=O)CC3)nc12 |  | inactive: -26.7% |
| COc1ccc2c(=O)c(Oc3ccc(C(=O)O)cc3)c(C(F)(F)F)oc2c1 | inconclusive [inhibitor, single point] |  |
| COc1ccc(S(=O)(=O)N2CCCC(c3cc(C(=O)NCc4cccnc4)no3)C2)cc1 (stereo not given) | inconclusive [inhibitor, single point] |  |
| C[C@@H](C(=O)Nc1ccc2ccccc2c1)[C@H]1C[C@]1(C)[C@H](NS(=O)(=O)c1ccc(-c2ccccc2)cc1)c1ccccc1 | inconclusive [inhibitor, single point] |  |
| CN1C(=O)/C(=C2\SC(=S)N(NC(=O)c3cccnc3)C2=O)c2ccccc21 |  | inactive: -1.59% |
| CCOc1ccc(C(=O)Cn2cnc3ccccc3c2=O)cc1 | inconclusive [inhibitor, partial curve] |  |
